{"source": "a collection of fitness landscapes (doi:10.1126/science.1257360)", "parents": {"B1": {"name": "PhoQ; a variant is named by its letters at X, in order, P23837 (parent)", "chain": "MKKLLRLFFPLSLRVRFLLATAAVVLVLSLAYGMVALIGYSVSFDKTTFRLLRGESNLFYTLAKWENNKLHVELPENIDKQSPTMTLIYDENGQLLWAQRDVPWLMKMIQPDWLKSNGFHEIEADVNDTSLLLSGDHSIQQQLQEVREDDDDAEMTHSVAVNVYPATSRMPKLTIVVVDTIPVELKSSYMVWSWFIYVLSANLLLVIPLLWVAAWWSLRPIEALAKEVRELEEHNRELLNPATTRELTSLVRNLNRLLKSERERYDKYRTTLTDLTHSLKTPLXXLQXXLRSLRSEKMSVSDAEPVMLEQISRISQQIGYYLHRASMRGGTLLSRELHPVAPLLDNLTSALNKVYQRKGVNISLDISPEISFVGEQNDFVEVMGNVLDNACKYCLEFVEISARQTDEHLYIVVEDDGPGIPLSKREVIFDRGQRVDTLRPGQGVGLAVAREITEQYEGKIVAGESMLGGARMEVIFGRQHSAPKDE"}}, "note": "The other results are listed elsewhere or left out."}
{"variants_of": "B1", "assay": "enrichment ratio after two sorts for PhoP signalling (ratio (wild type AVST 3.29)); higher = more functional", "details": "with PhoP (E. coli)"}
{"variant": "QDQL", "enrichment ratio": "≤ 0.25"}
{"variant": "MLSQ", "enrichment ratio": "≤ 0.25"}
{"variant": "MYFW", "enrichment ratio": "≤ 0.25"}
{"variant": "RYKH", "enrichment ratio": "≤ 0.25"}
{"variant": "AIMH", "enrichment ratio": 4.85}
{"variant": "SIHR", "enrichment ratio": "≤ 0.25"}
{"variant": "FQTH", "enrichment ratio": "≤ 0.25"}
{"variant": "SAPY", "enrichment ratio": "≤ 0.25"}
{"variant": "EYPN", "enrichment ratio": "≤ 0.25"}
{"variant": "IRNA", "enrichment ratio": "≤ 0.25"}
{"variant": "RMQK", "enrichment ratio": "≤ 0.25"}
{"variant": "PTWG", "enrichment ratio": "≤ 0.25"}
{"variant": "NDYY", "enrichment ratio": "≤ 0.25"}
{"variant": "YCKC", "enrichment ratio": "≤ 0.25"}
{"variant": "KPVR", "enrichment ratio": "≤ 0.25"}
{"variant": "GWVS", "enrichment ratio": "≤ 0.25"}
{"variant": "INYC", "enrichment ratio": "≤ 0.25"}
{"variant": "MFAC", "enrichment ratio": "≤ 0.25"}
{"variant": "TTGG", "enrichment ratio": 4.26}
{"variant": "YYQL", "enrichment ratio": "≤ 0.25"}
{"variant": "SADY", "enrichment ratio": "≤ 0.25"}
{"variant": "HEIH", "enrichment ratio": "≤ 0.25"}
{"variant": "VSQS", "enrichment ratio": "≤ 0.25"}
{"variant": "GFGM", "enrichment ratio": 1.75}
{"variant": "RTGM", "enrichment ratio": "≤ 0.25"}
{"variant": "YDYH", "enrichment ratio": "≤ 0.25"}
{"variant": "TPGQ", "enrichment ratio": 16}
{"variant": "YVSN", "enrichment ratio": 0.299}
{"variant": "GPYP", "enrichment ratio": "≤ 0.25"}
{"variant": "IFGN", "enrichment ratio": "≤ 0.25"}
{"variant": "EGHR", "enrichment ratio": "≤ 0.25"}
{"variant": "NMWI", "enrichment ratio": "≤ 0.25"}
{"variant": "VYCS", "enrichment ratio": "≤ 0.25"}
{"variant": "YFTI", "enrichment ratio": "≤ 0.25"}
{"variant": "ITIS", "enrichment ratio": "≤ 0.25"}
{"variant": "KGDN", "enrichment ratio": "≤ 0.25"}
{"variant": "MWTF", "enrichment ratio": "≤ 0.25"}
{"variant": "VDNY", "enrichment ratio": "≤ 0.25"}
{"variant": "NKYW", "enrichment ratio": "≤ 0.25"}
{"variant": "NKRK", "enrichment ratio": "≤ 0.25"}
{"variant": "LPQY", "enrichment ratio": "≤ 0.25"}
{"variant": "DKWS", "enrichment ratio": "≤ 0.25"}
{"variant": "GSMK", "enrichment ratio": "≤ 0.25"}
{"variant": "PLSH", "enrichment ratio": "≤ 0.25"}
{"variant": "LFHL", "enrichment ratio": "≤ 0.25"}
{"variant": "VNVW", "enrichment ratio": "≤ 0.25"}
{"variant": "DDVP", "enrichment ratio": "≤ 0.25"}
{"variant": "ITNH", "enrichment ratio": "≤ 0.25"}
{"variant": "PNTN", "enrichment ratio": "≤ 0.25"}
{"variant": "QWYI", "enrichment ratio": "≤ 0.25"}
{"variant": "SWPK", "enrichment ratio": "≤ 0.25"}
{"variant": "LARI", "enrichment ratio": "≤ 0.25"}
{"variant": "AIWV", "enrichment ratio": "≤ 0.25"}
{"variant": "IMFL", "enrichment ratio": "≤ 0.25"}
{"variant": "ENHQ", "enrichment ratio": "≤ 0.25"}
{"variant": "KDTN", "enrichment ratio": "≤ 0.25"}
{"variant": "ACLF", "enrichment ratio": 4.54}
{"variant": "YQSL", "enrichment ratio": "≤ 0.25"}
{"variant": "KCIG", "enrichment ratio": "≤ 0.25"}
{"variant": "FCIF", "enrichment ratio": "≤ 0.25"}
{"variant": "HYAG", "enrichment ratio": "≤ 0.25"}
{"variant": "SYME", "enrichment ratio": "≤ 0.25"}
{"variant": "PDFL", "enrichment ratio": "≤ 0.25"}
{"variant": "PNLP", "enrichment ratio": "≤ 0.25"}
{"variant": "EVFC", "enrichment ratio": "≤ 0.25"}
{"variant": "QPLV", "enrichment ratio": "≤ 0.25"}
{"variant": "RCWI", "enrichment ratio": "≤ 0.25"}
{"variant": "WGRY", "enrichment ratio": "≤ 0.25"}
{"variant": "WPKN", "enrichment ratio": "≤ 0.25"}
{"variant": "KRHQ", "enrichment ratio": "≤ 0.25"}
{"variant": "RDSC", "enrichment ratio": "≤ 0.25"}
{"variant": "NDER", "enrichment ratio": "≤ 0.25"}
{"variant": "WDCC", "enrichment ratio": "≤ 0.25"}
{"variant": "SMWA", "enrichment ratio": "≤ 0.25"}
{"variant": "MLCC", "enrichment ratio": "≤ 0.25"}
{"variant": "MEFT", "enrichment ratio": 1.13}
{"variant": "AQAV", "enrichment ratio": 5.37}
